To fix the notation:
T1: RBFOX1 RRM (Homo sapiens, UniProt Q9NWB1 109-208)
T1 sequence: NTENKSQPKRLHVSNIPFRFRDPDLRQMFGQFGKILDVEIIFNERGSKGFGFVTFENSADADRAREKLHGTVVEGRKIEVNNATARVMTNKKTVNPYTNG

B1: GGAAUGC (DNA:RNA)
RNA: GGGAGACCGGAAUUCAGAUUGUCCGGAAUGCUUAAAUCCCGUCGUAGCCACCA
DNA 1: CAATCTGAATTCCGGTCTCCC
DNA 2: TGGTGGCTACGACGGGATT
B2: GGAGUUG (DNA:RNA)
RNA: B1 RNA with A28G, G30U, C31G
DNA 1: CAATCTGAATTCCGGTCTCCC
DNA 2: TGGTGGCTACGACGGGATT
B3: GUAUAGG (DNA:RNA)
RNA: B1 RNA with G26U, A28U, U29A, C31G
DNA 1: CAATCTGAATTCCGGTCTCCC
DNA 2: TGGTGGCTACGACGGGATT
B4: CGGUCUG (DNA:RNA)
RNA: B1 RNA with G25C, A27G, A28U, U29C, G30U, C31G
DNA 1: CAATCTGAATTCCGGTCTCCC
DNA 2: TGGTGGCTACGACGGGATT
B5: AGUGUUU (DNA:RNA)
RNA: B1 RNA with G25A, A27U, A28G, G30U, C31U
DNA 1: CAATCTGAATTCCGGTCTCCC
DNA 2: TGGTGGCTACGACGGGATT
B6: CUACGCC (DNA:RNA)
RNA: B1 RNA with G25C, G26U, A28C, U29G, G30C
DNA 1: CAATCTGAATTCCGGTCTCCC
DNA 2: TGGTGGCTACGACGGGATT
B7: GCGUAGU (DNA:RNA)
RNA: B1 RNA with G26C, A27G, A28U, U29A, C31U
DNA 1: CAATCTGAATTCCGGTCTCCC
DNA 2: TGGTGGCTACGACGGGATT
B8: UGGUACG (DNA:RNA)
RNA: B1 RNA with G25U, A27G, A28U, U29A, G30C, C31G
DNA 1: CAATCTGAATTCCGGTCTCCC
DNA 2: TGGTGGCTACGACGGGATT
B9: CUGAGUA (DNA:RNA)
RNA: B1 RNA with G25C, G26U, A27G, U29G, G30U, C31A
DNA 1: CAATCTGAATTCCGGTCTCCC
DNA 2: TGGTGGCTACGACGGGATT
B10: GCUCUGC (DNA:RNA)
RNA: B1 RNA with G26C, A27U, A28C
DNA 1: CAATCTGAATTCCGGTCTCCC
DNA 2: TGGTGGCTACGACGGGATT
B11: CUCACGG (DNA:RNA)
RNA: B1 RNA with G25C, G26U, A27C, U29C, C31G
DNA 1: CAATCTGAATTCCGGTCTCCC
DNA 2: TGGTGGCTACGACGGGATT
B12: UGCCGCA (DNA:RNA)
RNA: B1 RNA with G25U, A27C, A28C, U29G, G30C, C31A
DNA 1: CAATCTGAATTCCGGTCTCCC
DNA 2: TGGTGGCTACGACGGGATT
B13: AAGAGCG (DNA:RNA)
RNA: B1 RNA with G25A, G26A, A27G, U29G, G30C, C31G
DNA 1: CAATCTGAATTCCGGTCTCCC
DNA 2: TGGTGGCTACGACGGGATT
B14: CGCGGAA (DNA:RNA)
RNA: B1 RNA with G25C, A27C, A28G, U29G, G30A, C31A
DNA 1: CAATCTGAATTCCGGTCTCCC
DNA 2: TGGTGGCTACGACGGGATT
B15: GGUAAGA (DNA:RNA)
RNA: B1 RNA with A27U, U29A, C31A
DNA 1: CAATCTGAATTCCGGTCTCCC
DNA 2: TGGTGGCTACGACGGGATT
B16: UGACGAA (DNA:RNA)
RNA: B1 RNA with G25U, A28C, U29G, G30A, C31A
DNA 1: CAATCTGAATTCCGGTCTCCC
DNA 2: TGGTGGCTACGACGGGATT
B17: GGAUCCG (DNA:RNA)
RNA: B1 RNA with A28U, U29C, G30C, C31G
DNA 1: CAATCTGAATTCCGGTCTCCC
DNA 2: TGGTGGCTACGACGGGATT
B18: AUGGAAU (DNA:RNA)
RNA: GGGAGACCGGAAUUCAGAUUGUCCAUGGAAUUUAAAUCCCGUCGUAGCCACCA
DNA 1: CAATCTGAATTCCGGTCTCCC
DNA 2: TGGTGGCTACGACGGGATT
B19: GGCCGGC (DNA:RNA)
RNA: B1 RNA with A27C, A28C, U29G
DNA 1: CAATCTGAATTCCGGTCTCCC
DNA 2: TGGTGGCTACGACGGGATT
B20: AUACCGG (DNA:RNA)
RNA: B18 RNA with G27A, G28C, A29C, A30G, U31G
DNA 1: CAATCTGAATTCCGGTCTCCC
DNA 2: TGGTGGCTACGACGGGATT

Positions count from the first letter of the chain named. This is one part of the list.

The experiment deals with T1, RBFOX1 RRM. Kind of experiment: EMSA; HiTS-Eq, 1 nM pool, 10 min; buffer printed only for the single-RNA assays: 10 mM Tris pH 7.5, 150 mM NaCl, 3.4 mM EDTA, 0.001% NP-40, 30 C. Particulars: tags: His6 N-terminal (pET28a); label: 5' 32P. In short, it runs like this: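 Relative association constants, normalised to the cognate motif, were derived by comparing read counts of each RNA species with those of the control reaction. The RNA sequenced was the free fraction, separated by 8% native PAGE after a 10 min equilibration in 50 µL of 1 nM 5′-radiolabelled RNA (7 randomized nucleotides) with increasing concentrations of purified wild-type or mutant RbFox RRM.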
In general terms: Mobility shift assays separate free from complexed probe on a gel.
Turning to B1, the binding signal was 0.0946 KA relative to UGCAUGU. In the case of B2, the binding signal was 0.0272 KA relative to UGCAUGU. The result for B3 reads 0.00932 KA relative to UGCAUGU. Take B4: the binding signal was 0.017 KA relative to UGCAUGU. The result for B5 reads 0.0113 KA relative to UGCAUGU; that for B6, 0.00418 KA relative to UGCAUGU. For B7 the value was 0.00907 KA relative to UGCAUGU; for B8, 0.0191 KA relative to UGCAUGU. For B9 the value was 0.0155 KA relative to UGCAUGU; for B10, 0.0201 KA relative to UGCAUGU; for B11, 0.0056 KA relative to UGCAUGU.

Take B12: the binding signal was 0.0229 KA relative to UGCAUGU. For B13 the value was 0.00725 KA relative to UGCAUGU; for B14, 0.0186 KA relative to UGCAUGU; for B15, 0.00611 KA relative to UGCAUGU. As to B16, the binding signal was 0.02 KA relative to UGCAUGU. On to B17, for which the binding signal was 0.00934 KA relative to UGCAUGU.

Consider B18, for which the binding signal is 0.00904 KA relative to UGCAUGU. For B19 the value was 0.0191 KA relative to UGCAUGU; for B20, 0.00158 KA relative to UGCAUGU.

The values are drawn from paper PMC9911399, “Two distinct binding modes provide the RNA-binding protein RbFox with extraordinary sequence specificity”.
